# Experimental data: paper PMC6919601, “Identification of Plasmodium dipeptidyl aminopeptidase allosteric inhibitors by high throughput screening” (PLoS ONE, 2019)
# The campaign covered roughly 110,000 compounds. About 230 (0.21%) showed an effect of 50% or more. The list shows a part of the results.
# Molecular target: DPAP1 (Plasmodium falciparum, UniProt Q8IIJ9)
# Assay: primary screen, percent inhibition; read by cleavage of a fluorogenic dipeptide substrate; higher = more effect of the substance
# Design: species or system P. falciparum D10 trophozoite lysates; single well
# 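Further: 30 min substrate incubation versus DMSO and 10 µM JCP410 controls.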
# DPAP1, sequence (Q8IIJ9 whole entry, looked up): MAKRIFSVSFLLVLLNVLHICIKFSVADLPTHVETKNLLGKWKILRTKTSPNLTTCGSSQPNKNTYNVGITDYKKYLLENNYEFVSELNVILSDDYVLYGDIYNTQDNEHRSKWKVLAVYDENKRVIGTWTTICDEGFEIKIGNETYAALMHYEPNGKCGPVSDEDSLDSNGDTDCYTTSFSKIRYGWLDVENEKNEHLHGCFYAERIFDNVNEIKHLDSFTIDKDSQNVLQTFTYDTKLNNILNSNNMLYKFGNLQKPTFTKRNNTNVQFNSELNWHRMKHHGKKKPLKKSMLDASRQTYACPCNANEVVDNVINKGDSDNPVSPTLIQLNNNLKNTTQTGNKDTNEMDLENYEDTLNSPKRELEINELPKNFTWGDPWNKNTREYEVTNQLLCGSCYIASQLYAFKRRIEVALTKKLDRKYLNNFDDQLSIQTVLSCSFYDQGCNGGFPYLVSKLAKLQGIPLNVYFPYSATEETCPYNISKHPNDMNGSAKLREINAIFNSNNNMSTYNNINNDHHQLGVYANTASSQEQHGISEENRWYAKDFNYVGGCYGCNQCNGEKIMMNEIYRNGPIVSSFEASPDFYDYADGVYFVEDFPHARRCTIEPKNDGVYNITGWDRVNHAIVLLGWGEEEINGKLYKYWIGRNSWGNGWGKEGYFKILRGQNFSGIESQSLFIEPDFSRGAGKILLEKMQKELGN
row,SMILES,% Inhibition @ 10 uM
1,CC(NC(=O)/C(=C\c1ccc2c(c1)OCO2)NC(=O)c1ccccc1)C(=O)O (centres unmarked),2.38%
2,O=C(O)c1ccc(CSc2cc(Cl)ccc2Cl)cc1,10.6%
3,CCOc1ccc(NC(=O)CN(c2cccc(OC)c2)S(C)(=O)=O)cc1,0.324%
4,OC1CCCN(Cc2ccc(F)cc2F)C1 (centres unmarked),-0.828%
5,COCCN1C(=O)c2ccccc2C(C(=O)NCCN(C)C)C1c1cccs1 (centres unmarked),-6.05%
6,CC(NC(=O)c1ccc(Cl)cc1Cl)C1COc2ccccc2O1 (centres unmarked),0.131%
7,N#CC1=C(N)Oc2[nH]nc(-c3cccnc3)c2C1c1cc2c(cc1Cl)OCO2 (centres unmarked),-2.78%
8,O=S1(=O)CC=C(CSc2nc3ccccc3[nH]2)C1,-2.62%
9,CCCc1c(C)nc2c(C(=O)NCc3ccccc3Cl)cnn2c1O,-0.406%
10,COCCO/C(O)=C1/C(C)=NC2=C(C(=O)CC(c3ccc(OC)cc3)C2)C1c1ccc(C)cc1 (centres unmarked),-0.053%
11,CCSc1ncc(Cl)c(C(=O)Nc2sc3c(c2C(=O)OC)CCC3)n1,-6.74%
12,CCN(CC)CCCOc1ccc(C)c(C)c1,-6.44%
13,COc1ccccc1-n1c(C)cc(/C=C2\C(=N)N3N=C(N4CCCC4)SC3=NC2=O)c1C,6.38%
14,CCOc1cc(S(=O)(=O)Nc2ccc(Cl)cn2)ccc1Cl,-1.17%
15,Cc1cc(C)cc(C(=O)Nc2cnn(Cc3ccccc3)c2)c1,-8.86%
16,O=S(=O)(c1ccc(-c2ccc(O)nn2)s1)N1CCC(CN2CCc3ccccc3C2)CC1,-0.303%
17,Cc1ccc(CCNC(=O)C2CCN(S(C)(=O)=O)CC2)cc1,2.05%
18,CCC1CCCCN1C(=O)C1=CC(c2ccc(C)cc2)=NS(=O)(=O)N1C (centres unmarked),-1.06%
19,COc1ccc(C2CC(c3ccc(Cl)cc3Cl)=NN2C(C)=O)cc1 (centres unmarked),0.235%
20,COC(=O)C1=C(C)N(CC(C)C)C(=O)/C1=C\c1cc(OC)c(OC)c(OC)c1,-0.436%
21,COC(=O)c1cc(S(=O)(=O)N(C)Cc2ccccc2)cn1C,-2.84%
22,CCN1CCN(C(=O)c2cnn(-c3ccc(C)cc3C)c2C2CCN(C(=O)OC(C)(C)C)CC2)CC1,1.92%
23,CC1CCN(c2ncnc3c2nc2n3CCCCC2)CC1,7.22%
24,COCc1cc(C)nc(SCC(=O)Nc2ccc(Br)cc2C)c1C#N,-1.84%
25,OC(COc1ccccc1)CN1CCN(c2ccccc2)CC1 (centres unmarked),0.389%

row,SMILES,% Inhibition @ 10 uM
1,Cc1nn(C)c(C)c1S(=O)(=O)N1CCC(C(=O)NC2CCCCCC2)CC1,0.708%
2,CC(CCc1ccccc1)/N=C/c1c(O)[nH]c2ccccc12 (centres unmarked),1.52%
3,COc1ccc(OC)c2sc(N(CCN(C)C)C(=O)c3cccs3)nc12,4.67%
4,C=CCN1C(=O)NC(=O)C(Cc2ccc(OC)c(OC)c2)C1=O (centres unmarked),-6.02%
5,CC(CNC(=O)CCc1nnc2n(Cc3ccccc3)c(=O)c3ccccc3n12)c1ccccc1 (centres unmarked),-4.21%
6,Cc1cccc(C(=O)Nc2sc3c(c2C(=O)N2CCOCC2)CCCC3)c1,-2.03%
7,CC[C@H](NC(=O)[C@H](Cc1c(F)cccc1F)NC(=O)c1ccc(-c2ccccc2Cl)nc1)C(O)c1nc2ccccc2o1 (some centres unmarked),-7.2%
8,CSc1sc(SC)c(CO)c1CO,-0.0372%
9,CC(C)(C)NC(=O)/C(=C/c1ccc(Br)cc1)NC(=O)c1ccccc1,-4.76%
10,COc1ccc(-c2csc(NC(=O)/C=C/C(=O)O)n2)cc1,-1.1%
11,CCCCNc1nc2c(c(=O)n(C)c(=O)n2C)n1Cc1ccc(Cl)cc1Cl,-3.98%
12,O=C(c1ccc(CN2CC(=O)N3CCCCC3C2=O)cc1)N1CCCCCC1 (centres unmarked),-3.6%
13,CCCOc1ccc(C2c3c(oc4ccccc4c3=O)C(=O)N2c2nnc(C)s2)cc1 (centres unmarked),2.16%
14,COc1ccc(CCN(C)CCC(=O)Nc2c(C)cc(C)cc2C)cc1OC,10.7%
15,Cc1ccccc1OCC(=O)Nc1ccc(F)cc1F,1.04%
16,CCOC(=O)C1=C(N)Oc2cc(C)n(Cc3cccnc3)c(=O)c2C1c1cccnc1 (centres unmarked),3.93%
17,OC1CCN(Cc2ccc3ccccc3c2)CC1,3.16%
18,C=CCN1C(=O)C(CC(=O)Nc2cccc(C(C)=O)c2)S/C1=N\c1ccc(C)c(C)c1 (centres unmarked),7.78%
19,COc1ccc(C2CC(=O)C(/C=N/C3CCCCC3)=C(O)C2)cc1 (centres unmarked),8.6%
20,O=C(O)c1ccc(SCc2ccccc2)nc1,4.28%
21,O=C1c2ccccc2C(=O)N1C/C=C/CS(=O)(=O)c1ccccc1,2.65%
22,COc1cccc(N2CCN(C3CC(=O)N(c4cc(OC)ccc4C)C3=O)CC2)c1 (centres unmarked),-6.05%
23,COc1ccc(-c2cc(-c3ccccc3)nc(N3CCCCC3)n2)cc1OC,0.827%
24,CCOc1ccc(C2C(C(=O)OC)=CN(Cc3ccc(Cl)cc3)C=C2C(=O)OC)cc1,0.219%
25,Cc1n[nH]c(C)c1CCCCOc1ccccc1,-1.41%

row,SMILES,% Inhibition @ 10 uM
1,CSc1ccc(-c2oc(C)c(C)[n+]2[O-])cc1,-1.99%
2,CC(C)C(=O)Nc1ccc(N2CCN(S(C)(=O)=O)CC2)cc1,-0.519%
3,O=C(CC12CC3CC(CC(C3)C1)C2)Nc1noc2ccccc12,3.77%
4,Oc1c(Br)cc(Br)cc1CN1CCN(c2cccc(C(F)(F)F)c2)CC1,-5.42%
5,Nc1ccc(Cl)cc1-n1nc(-c2ccc(F)cc2)c2ccccc2c1=O,5.16%
6,O=C(NCc1cccnc1)c1cc2nc(-c3cccs3)cc(C(F)(F)F)n2n1,-5.49%
7,CC(C)c1cc(=O)oc2c3c4c(cc12)CCCN4CCC3,33%
8,COC(=O)c1ccc(OCC2c3cc(OC)c(OC)cc3CCN2C(=O)c2ccc(C)cc2)cc1 (centres unmarked),1.76%
9,CCn1c(-c2ccc(OC)cc2)cs/c1=N\c1ccccc1,-0.132%
10,COc1ccccc1C(=O)Sc1ccc(Cl)cc1,0.163%
11,Cc1cc(C)n(-c2ccc3nnc(O)n3n2)n1,-0.828%
12,Cc1cc(C)c2nc(N(CCN(C)C)C(=O)c3ccco3)sc2c1,3.43%
13,CCN(CC)S(=O)(=O)c1ccc(NC(=O)C2CCCCC2)cc1,-5.3%
14,Cc1nn(CC(=O)NCCc2c[nH]c3ccccc23)c(=O)c2cc3sccc3n12,1.8%
15,Cc1cccc(CCNCc2c(C(=O)O)c(C)n(Cc3ccccc3F)c2C)c1,-7.36%
16,O=C(Cn1cc2c(n1)CCCC2)NCCc1ccc(Cl)cc1,3.4%
17,O=C(COc1cccc(N2C(=O)C3C4C=CC(C5CC45)C3C2=O)c1)c1ccc(F)cc1 (centres unmarked),-0.992%
18,COc1cc(NCc2ccc(C(F)(F)F)cc2)cc(OC)c1,3.19%
19,CCCc1nn2c(=O)cc(COc3ccc(/C=C(\C#N)C(=O)NCc4ccco4)cc3)nc2s1,1.15%
20,CC1(C)CCC[C@@]2(C)C1CC[C@]1(C)OC(=O)C[C@H]21 (some centres unmarked),3.48%
21,O/N=C1/CC(O)(C(F)(F)F)Oc2ccccc21 (centres unmarked),-5.41%
22,CCN(CC)CCNC(=O)CS(=O)Cc1nc(-c2ccc(Cl)cc2)oc1C (centres unmarked),2.37%
23,O=C1c2ccccc2C(Nc2ccc(Cl)cn2)N1c1cccnc1 (centres unmarked),-1.03%
24,Cc1nnc(N2CCCC(C(=O)N3CCN(c4ccccn4)CC3)C2)c2nn(-c3ccccc3)c(C)c12 (centres unmarked),-3.24%
25,O=C(/C=C/C(=O)Nc1cccc(O)c1)Nc1cccc(O)c1,-4.11%

row,SMILES,% Inhibition @ 10 uM
1,CN1C(=O)C(=CNc2cccc(F)c2)C(=O)N(C)C1=O,-0.996%
2,Cc1cc2nc(O)c(O)nc2cc1S(=O)(=O)NC1CCCCCC1,1.27%
3,CC(NC(=O)/C(C#N)=C/c1ccco1)c1ccccc1 (centres unmarked),16.1%
4,Cc1cc(O)c(C2=Nc3ccccc3SC(c3ccc(O)cc3)C2)c(=O)o1 (centres unmarked),6.08%
5,COc1ccc(-c2ccccc2)cc1NCC1=CC[C@H]2C[C@@H]1C2(C)C,1.83%
6,Cc1cc(C)nc(NC(=O)c2ccc(C(=O)Nc3cc(C)cc(C)n3)cc2)c1,-8.67%
7,CC(C)OC(=O)c1nnn(-c2nonc2N)c1CSc1nc2ccccc2o1,12%
8,Cn1c(=O)c2c(nc(-c3ccccc3)n2C)n(Cc2ccccc2)c1=O,-9.3%
9,C=C(C)Cn1c(SCCC)nc2c1c(=O)n(C)c(=O)n2C,-1.07%
10,c1ccc(CCNc2nc(-c3c[nH]c4ccccc34)cs2)cc1,5.7%
11,CC(C)c1ccc(-c2c(C#N)c(N)nc(SC3CCCCC3=O)c2C#N)cc1 (centres unmarked),0.587%
12,CCOC(=O)C1=C(CSc2nc3ccccc3s2)NC(=O)NC1c1ccccc1C(F)(F)F (centres unmarked),2.99%
13,Cc1ccc(Cn2c(C(=O)O)c(CNCCCc3ccccc3)c3ccc(C)cc32)cc1,4.67%
14,C=CCOc1ccc(C(=O)N(Cc2sccc2C)C2CCS(=O)(=O)C2)cc1 (centres unmarked),2.19%
15,COCC(=O)NCCc1nc2ccccc2n1C,3.49%
16,COc1ccc(CNC(=O)c2cccc(C)c2)cc1,0.526%
17,CCOc1ccc(NC(=O)c2ccc(NS(=O)(=O)c3cccc(C(F)(F)F)c3)cc2)cc1,-5.14%
18,O=C(/C=c1\[nH]c(=O)/c(=C/c2cccnc2)s1)c1ccc(Cl)cc1,-5.11%
19,O=C(Cc1ccccc1)Nc1ccccc1C(F)(F)F,-6.86%
20,O=C(CN1CCN(Cc2ccccc2Cl)C1=O)NC1CCCCCCC1,-6.91%
21,CC(=O)N1CCC(N2CCCCCC2)CC1,1.62%
22,COc1ccc2c(CNCCc3cccs3)c(C(=O)O)n(Cc3ccc(F)cc3)c2c1,6.17%
23,COc1ccccc1NC(=O)CCC(=O)O,-1.77%
